According to the supplement of paper PMC11417369:
± gives the standard deviation of the averaged measurements. The list shows a part of the results.

These sequences were tested on PfAP2-I AP2 domain 3 (GST-tagged) (assay: gcPBM binding intensity (ln(normalized median fluorescence intensity)); higher = stronger DNA binding).
In short: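 The highest Masliner-normalised natural-log median intensity across replicate spots of either probe orientation is reported as binding intensity. GST-tagged P. falciparum DNA-binding domains expressed in E. coli were applied for 1 h to an Agilent 4 × 180k array of primer-extended double-stranded 36-bp intergenic genomic probes plus negative controls, and bound protein was detected with Alexa488 anti-GST antibody and scanned at 488 nm.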

Row | Sequence | gcPBM binding intensity (ln)
1 | TAATAATAGAAACACACACACATAGACATATATATA [CACACA_site1307] | 7.96 ± 0.67
2 | ATGATTATACAAAATATACACACGTGTAGACAAATA [CACACA_site1175] | 7.85 ± 0.67
3 | TATTTTCAAAATGTTGTACACACAAAAAAAAAAAAA [CACACA_site8437] | 8.29 ± 0.43
4 | ATATACTTTTCAATGTGTACTTATGAATATATATGT [XGTACX_site7972] | 8.02 ± 0.26
5 | TATTTATAAATATGTGTGCACAATTTATTTTATAAT | 11 ± 0.26
6 | TTATTTCTAACATGATGTACTTTTATATTATATAAT [XGTACX_site3574] | 7.88 ± 0.44
7 | TTTTTTTTATATATCTGTACATATATATATATATAT [XGTACX_site8280] | 9.3 ± 0.35
8 | AGTAGCGGCGGTATCATGCACACGTATAGATTGTAA [CACACA_site1587] | 8.31 ± 0.76
9 | TTGTTTATATATATATGTACATATTTTAAGGCATCC [XGTACX_site6976] | 8.29 ± 0.3
10 | CCACGTATACGATGCACACGTATGCTTTATATATAG [CACACA_site4108] | 8.24 ± 0.48
11 | ATTAAATCCGCACGCACACACACATATTAAGAAAAA [CACACA_site6062] | 9 ± 0.014
12 | GTTGAAAAAAATATATGTACGTATATATGTATGTAT [XGTACX_site8201] | 8.23 ± 0.38
13 | ATTATTACTATATGTGTACACATCAACTGGTTTGAT [CACACA_site5563] | 8.18 ± 0.6
14 | TTGGTAAATATATTTTGAATATAAGAAATATAGACG [CACACA_negctrl_site1634] | 7.86 ± 0.48
15 | TATATATATAACAGAATGCACTTTATATGTTCATAT [GTGCAC_site9880] | 9.52 ± 0.19
16 | TATACGTATACCTATACACACATATATTTATTTATA [CACACA_site6716] | 7.89 ± 0.44
17 | GATATCCTTATATTTGCACACACACCCAATAAAATG [CACACA_site1028] | 9.54 ± 0.22
18 | AAAAAATACAGACACACACACACACGCATATAAATA [CACACA_site7644] | 7.94 ± 0.48
19 | TAATAAATTCATAATTGTACATTGAAGTATTATGCA [XGTACX_site5121] | 7.65 ± 0.37

Row | Sequence | gcPBM binding intensity (ln)
20 | TTTTTTTATTTTGTATGTACATATCATTTGATATTC [XGTACX_site8449] | 7.97 ± 0.73
21 | AAAAAAGAAAAAAAGTGTACAATATTTATTACATAT [XGTACX_site2277] | 7.79 ± 0.43
22 | GCAAAGCACAAATATGCATGTAGATATAGAATAATG [TGCATGCA_site382] | 8.32 ± 1
23 | ATAATCCTTGGACACACACACACACTAGTAAATAAA [CACACA_site4423] | 8.29 ± 0.27
24 | AACCCAAAATAATTATGTACATATTTTTAAATATAT [XGTACX_site6487] | 7.92 ± 0.34
25 | TTTGTGTATATAACAGTGCAATATTATAAATATAAA [GTGCAC_site9750] | 10.5 ± 0.51
26 | CTTAAAGGGAAAAATACACACATATAAATATTATGT [CACACA_site2225] | 7.41 ± 0.46
27 | ACTTAATTTTTTTTATGTACTTATTTAAAAAATTTT [XGTACX_site2712] | 8.09 ± 0.19
28 | TTAGTAGTATTATGTAGTACATAATTATCATATCAT [XGTACX_site817] | 8.01 ± 0.28
29 | TAATTATTTTTATATTGTACAATATGTAAATATATA [XGTACX_site592] | 7.59 ± 0.23
30 | ATAAATAAATAAATCTGTACATATGTATATGTATAT [XGTACX_site4537] | 7.61 ± 0.36
31 | AATTAAAAAAAAAAAAAAAAAAAAAAATGAAAAAAA [CACACA_negctrl_site1073] | 7.42 ± 0.57
32 | AAAAAAAAAAAAAAAAGTACATACAACATTATGAAA [XGTACX_site207] | 8.78 ± 0.33
33 | TTTTTTGAATTTAAAAGTACAGGCTTTTACCAAATA [XGTACX_site1356] | 7.7 ± 0.45
34 | CATTTCTATATAAGCACACACGTGGAATTTTTTTTT [CACACA_site5537] | 9.03 ± 0.41
35 | TCATATTATAAATAAATAAATAAATATATATATATA [CACACA_negctrl_site577] | 9.32 ± 0.31
36 | AAATCGTAATATATTTGTACTTATTTGAAAAATCCA [XGTACX_site8141] | 7.76 ± 0.33
37 | ATTATTTGAACAACAAAAAAAAAGAAAAGAAAAGAA [CACACA_negctrl_site1031] | 8.3 ± 1.2
38 | AACACGCGCAGACACACACACACACGCACATATATA [CACACA_site7104] | 8.35 ± 0.6

Row | Sequence | gcPBM binding intensity (ln)
39 | TTTTTTTTCTTTTTTTTAAGAAATAAATAAATAATT [XGTACX_negctrl_site137] | 7.32 ± 0.16
40 | TATATTTCATTATATTGTACAAAATATATATATTAT [XGTACX_site4644] | 7.76 ± 0.4
41 | ATGTATATAAATATACGTACATAAATATAAGTATAG [XGTACX_site7155] | 7.83 ± 0.23
42 | ATACATGAATAAATATGTACACATATAAAAACATAT [XGTACX_site2740] | 7.96 ± 0.23
43 | CATTATATATATTACTAAAAATTTTACCCCTTAGCT [CACACA_negctrl_site302] | 7.93 ± 0.48
44 | TTTTTTCTTTTTATGTGTACTTATTTTATTTAATAA [XGTACX_site1080] | 8 ± 0.49
45 | CTATAATAACATAACACACACATGTATTTATAGGTG [CACACA_site6298] | 7.79 ± 0.57
46 | ATATATATACAACAAGCATGCAGTAATTTTTTTTTT [TGCATGCA_site728] | 8.52 ± 0.79
47 | TCCTTATAAAAATACACACAAACTTTAATTAAAACA [CACACA_site3730] | 7.75 ± 0.33
48 | TATTATATTTATTTATGTACACATATACTTAAATAA [XGTACX_site1355] | 7.78 ± 0.43
49 | TGTAATACAGAAAAAAGTACTAAAAAGAAAAGGATT [XGTACX_site3176] | 8.445 ± 0.049
50 | ACACCTATAAATTAAGTGCATTTTTTTTGATGTTAT | 9.45 ± 0.46
51 | TTTTTTTTTTTAATATGTACGTAAAATAAGTTTAAA [XGTACX_site6495] | 8.06 ± 0.18
52 | ACATTCAATCTACTGTGTACATATTAAACTTTGAAA [XGTACX_site2913] | 8.18 ± 0.68
53 | AAAAAATATATATCACGTGGTAATATATATATATAT [XGTACX_negctrl_site252] | 9.13 ± 0.45
54 | AAATTAAATCCGCACGCACACACACCGATTAATAAA [CACACA_site9321] | 8.73 ± 0.4
55 | AATATATAAATAGATACACACATACATACATACATA [CACACA_site4301] | 8.07 ± 0.49
56 | TACATCTGTATATAAACACACAACAAAAATGCTTAC [CACACA_site3814] | 7.69 ± 0.75
57 | TAACATTACTCTTAACTCTTTTGGATACCAACTTAT [XGTACX_negctrl_site82] | 7.78 ± 0.54
